Experimental data: PubChem BioAssay AID1159614 (National Center for Advancing Translational Sciences (NCATS), 2016)
Hit rate of the full screen: of about 45,000 compounds, about 65 (0.1%) were called active. Calls come from the whole dose curve; as a rule, active = well fitted activation curve with a large enough effect; inconclusive = small, poorly fitted or top-dose-only effect; inactive = no such curve, though single readings can be large or run the other way. The list shows a part of the results.

Each compound was assayed against Galactocerebrosidase (Homo sapiens) (UniProt P54803) (assay: A Novel Cell-Based Assay to Identify Small Molecules for B -Galactocerebrosidase). Details: 145M-Twi-hGALC-G270D cells (Twitcher mouse brain line with human GALC G270D), HMU-beta-Gal fluorescence, 48 h; series mostly up to 57.5 µM; activation: at the top concentration.
Chain of UniProt P54803 (P54803 whole entry, looked up): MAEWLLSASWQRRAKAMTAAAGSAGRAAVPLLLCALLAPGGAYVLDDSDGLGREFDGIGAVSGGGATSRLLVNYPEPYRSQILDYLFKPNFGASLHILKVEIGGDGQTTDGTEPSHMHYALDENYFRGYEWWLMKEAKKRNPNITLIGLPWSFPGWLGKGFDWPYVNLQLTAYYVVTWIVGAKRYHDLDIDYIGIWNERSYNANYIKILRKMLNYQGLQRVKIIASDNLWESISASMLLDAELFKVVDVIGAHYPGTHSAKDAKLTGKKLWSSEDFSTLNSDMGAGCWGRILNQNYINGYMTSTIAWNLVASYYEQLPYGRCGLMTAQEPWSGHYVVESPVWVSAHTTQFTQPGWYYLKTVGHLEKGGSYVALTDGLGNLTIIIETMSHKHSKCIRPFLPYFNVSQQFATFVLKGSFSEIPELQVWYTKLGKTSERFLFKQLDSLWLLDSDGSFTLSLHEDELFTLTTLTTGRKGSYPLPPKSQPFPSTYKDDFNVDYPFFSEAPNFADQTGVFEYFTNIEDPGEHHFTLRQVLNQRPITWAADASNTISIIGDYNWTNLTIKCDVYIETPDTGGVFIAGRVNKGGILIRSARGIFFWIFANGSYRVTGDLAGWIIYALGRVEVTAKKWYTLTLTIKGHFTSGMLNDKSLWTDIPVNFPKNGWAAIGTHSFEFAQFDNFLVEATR
How it was run: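 Brain-derived Twitcher mouse 145M-Twi cells stably expressing human GALC-G270D or wild-type GALC, treated live, then residual GALC activity read by fluorescence of HMU-b-Gal substrate (0.1 mM final) in citrate-phosphate buffer pH 5.2 with sodium taurocholate. Signal increase indicates enhancement.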
Note: 0% is about no effect; nearly all actives have a fitted effect of over 65% in size.

activation, inactive:
COc1ccccc1NC(=O)c1cc(S(=O)(=O)N(C)C2CCCCC2)ccc1F -5.61%, Cc1ccc(NC(=O)C(Cc2ccccc2)NS(=O)(=O)c2ccc3c(c2)oc(=O)n3C)c(Cl)c1 (centres undefined) -2.98%, COc1cc(C=C2CCC/C(=C\c3ccc(O)c(OC)c3)C2=O)ccc1O -16.1%, CCOC(=O)N1CCc2c(sc3c2c(=O)n(CCc2ccccc2)c(=O)n3Cc2cc(C)ccc2C)C1 -1.55%, COCCNC(=O)Cn1cc(S(=O)(=O)Cc2ccccc2Cl)c2ccccc21 -8.47%, CC1=C(C(=O)Nc2ccccc2C)C(c2cccnc2)n2nc(SCc3ccccc3)nc2N1 (centres undefined) -25.7%, COc1ccc(-n2c(=O)c3sc4ccccc4c3n(CC(=O)Nc3cccc(C)c3)c2=O)cc1 -6.47%, Cc1ccc(-c2nnc(Nc3ccc(Br)cc3)c3ccccc23)cc1S(=O)(=O)N1CCOCC1 -7.56%, CCN(CC)S(=O)(=O)c1ccc2c(c1)N(CC(=O)NCCc1ccc(OC)c(OC)c1)C(=O)CO2 -21.5%, CCOc1ccccc1NC(=O)c1cn(C2CCCC2)c(=O)c2c1c1ccccc1n2C -24.1%, COc1ccccc1NC(=O)C1=C(C)Nc2nc(SCc3ccccc3)nn2C1c1ccccn1 (centres undefined) -20.3%, COc1ccccc1CNc1nc2nc(C)c(Cl)c(C)n2n1 1.77%, COC(=O)c1c(NC(=O)c2cccc(OC)c2)sc2c1CCC(C(C)(C)C)C2 (centres undefined) 5.9%, CC1CCCN(S(=O)(=O)c2cc3c(cc2Cl)NC(=O)CO3)C1 (centres undefined) -4.26%, Cc1nnc(NC(=O)CSc2nccn2-c2cccc(Cl)c2)s1 -20.3%, Cc1nc2c(c(C)c1CCC(=O)Nc1cccc(C(F)(F)F)c1)c(=O)n(C)c(=O)n2C -18%, COc1ccc(-c2cc(=O)n3[nH]cnc3n2)cc1 -15%, O=C(CCC(=O)N1CC2CCCN2c2ccccc21)NCc1ccccc1Cl (centres undefined) -19.9%, COc1ccc(N2CCN(c3ccc(-c4nc(-c5ccccc5C)no4)cc3[N+](=O)[O-])CC2)cc1 -10.9%, Cc1ccc(NC(=O)N2CCC(N3CCN(Cc4ccccc4)C(=O)C3=O)CC2)cc1Cl 0.343%, Cc1cccc(-c2nc(SCC(=O)Nc3cc(C)on3)c3c(=O)n(C)c(=O)n(C)c3n2)c1 -8.34%, COCCCNC(=O)c1ccc2c(c1)N=C(C)c1c(C)ccc(C)c1S2 16.8%, Cc1cn2c(=O)cc(COc3ccc(C(C)(C)C)cc3)nc2s1 -24.4%, CC(C)CCn1c(SCc2c(F)cccc2Cl)nc2ccsc2c1=O -4.38%, CC(C)NC(=O)CCSc1nc(-c2ccc3c(c2)OCO3)cc(C(F)(F)F)n1 -19.9%, Cc1cccc(C)c1NC(=O)CSc1nc(-c2cccs2)cc(C(F)(F)F)n1 -15.3%, CN(c1nccc(=O)[nH]1)C1CCN(c2nc3ccccc3n2Cc2ccc(F)cc2)CC1 -11.6%, CCOc1ccccc1N(CC)C(=O)c1ccc2c(=O)n3c(nc2c1)CCCCC3 -30.6%, O=C(Nc1ccc(F)c(Cl)c1)C1CCCN(S(=O)(=O)c2cccc3nsnc23)C1 (centres undefined) -16.4%, CCOc1ccc2nc(NC(=O)c3nc(SC(C)C)ncc3Cl)sc2c1 -0.499%, CC1CCN(C(=O)Cn2c(=O)n(-c3ccc(Cl)cc3)c(=O)c3c4c(sc32)CCC4)CC1 -14.9%, C[N+](C)(C)CC(=O)O -11.9%, CCc1cccc2c(-c3ccccc3)nc(SCC(=O)Nc3ccc(OC)cc3)nc12 -1.26%, N#Cc1ccccc1Cn1c(SCC(=O)NCc2ccccc2)nc2ccccc21 -16.8%, CCOc1ccc(CCNC(=O)CSCc2nc(-c3cccc(C)c3)oc2C)cc1OCC -10.6%, Cc1cc2nn(-c3ccccc3)nc2cc1NC(=O)Cc1ccc(Cl)cc1 -11.3%, CC(C)N(Cc1ccccc1)S(=O)(=O)c1ccc(N2CCCCS2(=O)=O)cc1 4.74%, CN(C)S(=O)(=O)c1ccc(C(=O)N(Cc2cccnc2)c2nc3c(F)cc(F)cc3s2)cc1 -10.6%, O=C(O)c1ccccc1C(=O)Nc1ccc(S(=O)(=O)Nc2nccs2)cc1 0.826%, O=C(Cn1c(=O)c2cccn2c2ccc(F)cc21)NCc1cccc(Cl)c1 -5.26%, CCOc1ccc(NC(=O)c2sc3nc(-c4ccc(OC)cc4)cn3c2C)cc1 -11.7%, Cc1c(Cl)cccc1NC(=O)CSc1nc(=O)n(CCN2CCOCC2)c2c1CCC2 -10.9%, Cc1ccccc1NC(=O)Cn1c(=O)n(CCCCCC(=O)NCc2ccc3c(c2)OCO3)c(=O)c2sccc21 -15.5%, COc1ccc(-n2ccn(CC(=O)Nc3ccccc3C(F)(F)F)c(=O)c2=O)cc1OC -19.6%, CC(=O)N1CCc2c(sc3c2c(=O)n(CCc2ccccc2)c(=O)n3Cc2ccc(F)cc2)C1 -17.3%, COc1cc(NC(=O)C2CCCN(S(=O)(=O)c3cn(C)cn3)C2)cc(OC)c1 (centres undefined) -5.2%, COc1ccc(-c2nsc(NC(=O)c3ccccc3Br)n2)cc1 -7.38%, CCc1ccccc1NC(=O)CCc1c(C)nc2cc(-c3ccccc3)nn2c1C -7.64%, CCOc1ccc(NC(=O)CCS(=O)(=O)c2cc3c4c(c2)CCN4C(=O)CC3)cc1 -6.19%, Cc1ccc(Nc2ccc(N3CCN(C(=O)c4ccc([N+](=O)[O-])cc4Cl)CC3)nn2)cc1 -18.1%, CC(=O)Nc1ccc(NCc2nnc3n2CCCCC3)cc1 -8.88%, CCOC(=O)c1cc2c(=O)n3ccccc3nc2n(CC(C)C)c1=NC(=O)C(C)Oc1ccccc1 (centres undefined) -6.7%, O=C(NC1CC(=O)N(c2ccc(Cl)cc2)C1)C(=O)c1c[nH]c2ccccc12 (centres undefined) -0.575%, CC(=O)OC(C)OC(=O)C(C)c1ccc(-c2ccccc2)c(F)c1 (centres undefined) -9.34%, Cc1nnc(N2CCN(C(=O)Nc3cc(F)ccc3F)CC2)c2nn(-c3ccc(Cl)cc3)c(C)c12 -36.8%, Cc1cc(O)c(C(c2ccccc2)N2CCC(C)CC2)c(=O)n1Cc1ccco1 (centres undefined) -19.5%, CN(C)c1ccc(C(CNC(=O)c2ccc(C(C)(C)C)cc2)N2CCCC2)cc1 (centres undefined) -7.27%, Cc1cn2c(=O)cc(COc3ccc(NC(=O)c4ccc(C(C)(C)C)cc4)cc3)nc2s1 -14.1%, COc1ccc(CNC(=O)CCc2c(C)nn(-c3ccc(N4CCOCC4)nn3)c2C)c(OC)c1 2.11%, CCC1=C(c2ccc(C)cc2)S(=O)(=O)N=C1N1CCC(C(=O)Nc2ccccc2C(=O)OC)CC1 -12.9%, Cc1cccc(NC(=O)C2CCCN2S(=O)(=O)c2cccc3nsnc23)c1C (centres undefined) -10.6%, CCN(C(=O)c1sc2nc3n(c(=O)c2c1C)CCCC3)c1ccccc1F -11.7%, CC(=O)c1ccc(NC(=O)CSc2nnc3ccc(-c4ccc(F)cc4)nn23)cc1 -9.58%, Cc1ccc(CCNC(=O)c2cc(-c3ccccc3)n[nH]2)cc1 -14.1%, Cc1ccc(C)c(NC(=O)c2cnn(-c3ccc(F)cc3F)c2C2CCNCC2)c1 -8.89%, CCOC(=O)c1ccc(NC(=O)CN2C(=O)C(C)(C)c3ccccc32)cc1 -11.3%, COc1ccccc1NC(=O)CN(C)S(=O)(=O)c1cccc2cccnc12 1.52%, Cc1ccc(Nc2ccc(N3CCN(C(=O)c4cccc([N+](=O)[O-])c4)CC3)nn2)cc1 -8.93%, O=C(CSc1ncc2c(n1)-c1ccccc1N(Cc1ccc(Cl)cc1)S2(=O)=O)c1ccc(Cl)cc1 -14.6%, Cc1cccc(C)c1NC(=O)CCSc1nc(-c2ccc3c(c2)OCO3)cc(C(F)(F)F)n1 -0.235%, CCCC12CN3CC(CCC)(CN(C1)C3c1ccc(OCc3ccccc3)cc1)C2=O (centres undefined) -15.7%, Cc1ccccc1NC(=O)Cn1c(=O)n(CCC(=O)N2CCc3ccccc3C2)c(=O)c2ccccc21 -16.9%, Cc1ccc(CNC(=O)CN2Cc3ccccc3C2=O)cc1 -19.2%, COc1ccc(NS(=O)(=O)c2cc(-c3onc(C)c3C)ccc2C)c(OC)c1 -9.77%, CCC1CN(C(=O)N2CCC(C(=O)NCCCc3ccccc3)CC2)c2cc(C)ccc2O1 (centres undefined) -17.1%, Cc1cccc(NC(=O)c2cccc(N3CCCS3(=O)=O)c2)c1 -1.91%, O=C(COc1ccc(F)cc1)Nc1ccc(OCc2cc(=O)n3ccsc3n2)cc1 -2.67%, CCCc1cnc2c(c1SCC(=O)Nc1ccc([N+](=O)[O-])cc1)c(=O)n(C)c(=O)n2C -17.1%, CCOC(=O)c1ccccc1NC(=O)N(Cc1ccc(CC)cc1)Cc1cn[nH]c1-c1ccc(OC)cc1 -12.5%, Cc1ccc(Cl)cc1NC(=O)c1sc2nc(C)c(C)c(C)c2c1N -8.89%, Cc1ccc(C2CC(=O)n3nc(-c4ccc(F)cc4)nc3S2)cc1 (centres undefined) -16.8%, COc1ccc(NC(=O)CCS(=O)(=O)c2cc3c(cc2C)NC(=O)CO3)cc1Cl -13.4%, COc1cc(NC(=O)Cn2c(-c3ccccc3)cc(C(C)=O)c2C)cc(OC)c1 -17.8%, COC(=O)c1ccc2c(c1)sc(=NC(=O)c1ccc(S(=O)(=O)N3CCCCC3)cc1)n2C -8.53%, Cc1ccc(-c2cnc(C3CC3)o2)cc1S(=O)(=O)Nc1cccc(C#N)c1 -22.9%, COc1ccc(-n2nc(C(=O)NCCc3ccc(Cl)cc3)c3c4ccccc4n(C)c3c2=O)cc1 -10.8%, COc1ccc(C2c3c(-c4ccccc4)n[nH]c3C(=O)N2c2ccc(C(=O)O)cc2)c(OC)c1 (centres undefined) -9.6%, Cc1ccc(NC(=O)Cn2c(=O)n(CCC(=O)N3CCc4ccccc4C3)c(=O)c3ccccc32)c(C)c1 8.78%, OCCN(CCO)c1nc(N2CCCCC2)c2nc(N(CCO)CCO)nc(N3CCCCC3)c2n1 -8.07%, CN(Cc1ccccc1)C(=O)CSc1c2c(nc3ccc(Cl)cc13)CCCC2 -14.2%, Cc1ccc(-c2c(CN3CCN(c4cccc(C)c4C)CC3)csc2C)cc1 -8.78%, O=S(=O)(NCCS(=O)(=O)N1CCN(c2ccccc2)CC1)c1ccccc1 -31.7%, COC(=O)c1ccc(NC(=O)C(C)Sc2nc(=O)cc(N)n2CCc2ccccc2)cc1 (centres undefined) -1.73%, O=C(O)c1ccc(NC(=O)c2ccc(Cl)c(S(=O)(=O)N3CCCCCC3)c2)cc1 -17.3%
